One assay deals with HSkMC. The assay is described as follows: cytotoxicity call (relative viability < 0.9). Particulars: 10 µM.
The test system of a further assay is HepG2. The assay is described as follows: cytotoxicity call (relative viability < 0.9). The settings on record: 10 µM.
The next assay concerns S. aureus RN4220. Briefly: growth inhibition call (relative growth <= 0.2). The settings on record: 50 µM.

Some of the results follow.

Here are results for 26 molecules from the antibiotic and cytotoxicity screens of Wong et al. (2023).

In the case of `CCCC#Cc1ccc2c(c1)O[C@@H](CN(C)S(=O)(=O)c1cccc(F)c1)[C@H](C)CN([C@H](C)CO)S2(=O)=O`, the cytotoxicity call in the assay with HSkMC and in the assay on HepG2 was “inactive” each time. Also, in the assay with S. aureus RN4220, the growth inhibition call is “inactive”.
Turning to `Cc1ccc(S(=O)(=O)Nc2cccc3c2O[C@H](CN(C)S(=O)(=O)c2ccc(F)cc2)[C@@H](C)CN([C@@H](C)CO)C3=O)cc1`, the cytotoxicity call with HSkMC and in the assay with HepG2 was “inactive” throughout. Also, the growth inhibition call with S. aureus RN4220 was “inactive”.
As to `CCC(=O)Nc1ccc2c(c1)C(=O)N(C)C[C@@H](OC)[C@@H](C)CN(C(=O)CN1CCOCC1)[C@H](C)CO2`, the cytotoxicity call in the assay with HSkMC and in the assay with HepG2 was “inactive” each time. The growth inhibition call in the assay with S. aureus RN4220 is “inactive”.
Turning to `COc1ccccc1CNC(=O)C[C@@H]1C[C@@H]2c3cc(NC(=O)NC4CCCC4)ccc3O[C@@H]2[C@H](CO)O1`, the cytotoxicity call with HSkMC and with HepG2 was “inactive” each time. The growth inhibition call in the assay on S. aureus RN4220 is “inactive”.
`C[C@@H]1CCCCO[C@@H](CN(C)CC2CC2)[C@H](C)CN([C@@H](C)CO)C(=O)c2cc(NC(=O)NC3CCCCC3)ccc2O1`: the cytotoxicity call with HSkMC and with HepG2 was “inactive” in each case. For the same molecule, in the assay with S. aureus RN4220, the growth inhibition call was “inactive”.
Take `COc1ccccc1C#Cc1ccc2c(c1)O[C@@H](CN(C)C(C)=O)[C@@H](C)CN([C@H](C)CO)S2(=O)=O`: the cytotoxicity call in the assay with HSkMC and with HepG2 was “inactive” throughout. The growth inhibition call with S. aureus RN4220 was “inactive”.
For the molecule `O=C(C[C@H]1CC[C@H](NS(=O)(=O)c2ccc(F)cc2)[C@H](CO)O1)N1CCC(Cc2ccccc2)CC1`, the cytotoxicity call in the assay on HSkMC and with HepG2 was “inactive” throughout. For the same molecule, the growth inhibition call with S. aureus RN4220 was “inactive”.
`Cc1noc(C)c1S(=O)(=O)N(C)C[C@H]1Oc2ccc(NC(=O)Cc3ccccc3)cc2CC(=O)N([C@@H](C)CO)C[C@@H]1C`: the cytotoxicity call in the assay with HSkMC and in the assay on HepG2 was “inactive” in each case. The growth inhibition call in the assay with S. aureus RN4220 was “inactive”.
Regarding `C[C@@H]1CN([C@@H](C)CO)C(=O)Cc2cc(NC(=O)NC3CCCCC3)ccc2O[C@@H]1CN(C)Cc1ccc(C(F)(F)F)cc1`, the cytotoxicity call with HSkMC and in the assay on HepG2 was “inactive” each time. Besides, the growth inhibition call with S. aureus RN4220 was “inactive”.
With `COCC(=O)Nc1ccc2c(c1)OC[C@@H](C)N(Cc1cccc(F)c1)C[C@H](C)[C@H](OC)CN(C)C2=O`, the cytotoxicity call in the assay on HSkMC and in the assay on HepG2 was “inactive” in each case. The growth inhibition call in the assay on S. aureus RN4220 is “inactive”.
On to `O=C(C[C@H]1CC[C@H]2NC[C@H](O)COC[C@@H]2O1)NCCN1CCCCC1`, for which the cytotoxicity call in the assay with HSkMC and with HepG2 was “inactive” in each case. For the same molecule, the growth inhibition call in the assay with S. aureus RN4220 was “inactive”.
Turning to `C[C@@H]1CN([C@H](C)CO)C(=O)c2cccc(NC(=O)C3CCOCC3)c2O[C@H]1CN(C)S(=O)(=O)c1cn(C)cn1`, the cytotoxicity call in the assay with HSkMC and in the assay on HepG2 was “inactive” in each case. Moreover, the growth inhibition call with S. aureus RN4220 is “inactive”.
As for `O=C(C[C@@H]1C[C@@H]2c3cc(NC(=O)C4CCOCC4)ccc3O[C@@H]2[C@@H](CO)O1)NCc1ccc(Cl)cc1`, the cytotoxicity call in the assay on HSkMC and in the assay with HepG2 was “inactive” each time. Also, the growth inhibition call in the assay on S. aureus RN4220 was “inactive”.
Turning to `C[C@@H]1CN([C@H](C)CO)C(=O)c2cc(NC(=O)Nc3ccc4c(c3)OCO4)ccc2O[C@@H]1CN(C)S(=O)(=O)c1cn(C)cn1`, the cytotoxicity call with HSkMC and in the assay with HepG2 was “inactive” throughout. The growth inhibition call in the assay on S. aureus RN4220 is “inactive”.
As for `N[C@@H](CCc1ccccc1Cl)c1ccc2c(c1)OCCO2`, the cytotoxicity call in the assay with HSkMC is “inactive”. Besides, the cytotoxicity call in the assay with HepG2 is “active”. For the same molecule, the growth inhibition call in the assay with S. aureus RN4220 was “inactive”.
For `C/C(C[P+](c1ccccc1)(c1ccccc1)c1ccccc1)=N\NC(=O)CCCCCCC(=O)Nc1ccccc1O`, the cytotoxicity call in the assay on HSkMC and in the assay on HepG2 was “inactive” in each case. Also, the growth inhibition call in the assay with S. aureus RN4220 was “inactive”.
`C[C@H](CO)N1C[C@H](C)[C@H](CN(C)Cc2ccc(Cl)c(Cl)c2)Oc2ccc(NC(=O)Nc3ccccc3)cc2CC1=O`: the cytotoxicity call in the assay on HSkMC and with HepG2 was “active” in each case. Further, in the assay on S. aureus RN4220, the growth inhibition call was “inactive”.
Turning to `C[C@H](CO)N1C[C@H](C)[C@@H](CN(C)S(C)(=O)=O)OCc2ccccc2-c2c(n(C)c3ccccc23)C1=O`, the cytotoxicity call in the assay on HSkMC and with HepG2 was “inactive” in each case. Besides, in the assay on S. aureus RN4220, the growth inhibition call is “inactive”.
Turning to `CO[C@H]1CN(C)C(=O)c2ccc(NS(C)(=O)=O)cc2OC[C@@H](C)N(S(C)(=O)=O)C[C@@H]1C`, the cytotoxicity call with HSkMC and in the assay on HepG2 was “inactive” throughout. Moreover, the growth inhibition call in the assay on S. aureus RN4220 is “inactive”.
`COc1ccc([Si](C)(C)[C@H]2[C@H](CCn3cc([C@H](O)c4ccccc4)nn3)O[C@@]3(C(=O)N(C)c4c(Br)cc(C)cc43)[C@@H]2C)cc1`: in the assay on HSkMC, the cytotoxicity call is “inactive”. Also, in the assay on HepG2, the cytotoxicity call was “active”. In addition, the growth inhibition call with S. aureus RN4220 was “inactive”.
In the case of `C[C@@H]1CCCCO[C@@H](CN(C)C(=O)Nc2ccc(F)cc2)[C@H](C)CN([C@H](C)CO)C(=O)c2cc(NC(=O)CCC(F)(F)F)ccc2O1`, the cytotoxicity call in the assay with HSkMC and in the assay on HepG2 was “inactive” each time. For the same molecule, the growth inhibition call with S. aureus RN4220 is “inactive”.
As for `C[C@@H]1CN([C@@H](C)CO)S(=O)(=O)c2ccc(-c3cncnc3)cc2O[C@H]1CN(C)C(=O)c1ccc2c(c1)OCO2`, the cytotoxicity call in the assay on HSkMC and in the assay on HepG2 was “inactive” each time. Also, the growth inhibition call in the assay with S. aureus RN4220 is “inactive”.
As to `COc1ccc(S(=O)(=O)Nc2cccc3c2O[C@H](CN(C)S(=O)(=O)c2ccccc2)[C@H](C)CN([C@@H](C)CO)C3=O)cc1`, the cytotoxicity call in the assay on HSkMC (human skeletal muscle cells) and with HepG2 was “inactive” throughout. In addition, the growth inhibition call in the assay on S. aureus RN4220 was “inactive”.
As to `C[C@@H]1CCCCO[C@H](CN(C)C(=O)NC2CCCCC2)[C@H](C)CN([C@H](C)CO)C(=O)c2cc(NC(=O)NC3CCCCC3)ccc2O1`, the cytotoxicity call with HSkMC was “inactive”. Further, the cytotoxicity call with HepG2 is “active”. Besides, the growth inhibition call with S. aureus RN4220 is “inactive”.
In the case of `C[C@H](CO)N1C[C@H](C)[C@H](CN(C)C(=O)Nc2cccc3ccccc23)Oc2ccc(NC(=O)Cc3ccccc3)cc2CC1=O`, the cytotoxicity call with HSkMC and in the assay with HepG2 was “inactive” in each case. Further, the growth inhibition call with S. aureus RN4220 was “inactive”.
Take `COc1ccc2c3c(n(c2c1)C)[C@H](CO)N(C[C@]13CCN(CC1)C(=O)CC1CC1)C(=O)CN1CCOCC1`: the cytotoxicity call in the assay with HSkMC and with HepG2 was “inactive” throughout. Besides, the growth inhibition call in the assay on S. aureus RN4220 was “inactive”.
